{"source": "the supplement of paper PMC11876631", "parents": {"B1": {"name": "mrdA; numbered along this chain (parent)", "chain": "MKLQNSFRDYTAESALFVRRALVAFLGILLLTGVLIANLYNLQIVRFTDYQTRSNENRIKLVPIAPSRGIIYDRNGIPLALNRTIYQIEMMPEKVDNVQQTLDALRSVVDLTDDDIAAFRKERARSHRFTSIPVKTNLTEVQVARFAVNQYRFPGVEVKGYKRRYYPYGSALTHVIGYVSKINDKDVERLNNDGKLANYAATHDIGKLGIERYYEDVLHGQTGYEEVEVNNRGRVIRQLKEVPPQAGHDIYLTLDLKLQQYIETLLAGSRAAVVVTDPRTGGVLALVSTPSYDPNLFVDGISSKDYSALLNDPNTPLVNRATQGVYPPASTVKPYVAVSALSAGVITRNTTLFDPGWWQLPGSEKRYRDWKKWGHGRLNVTRSLEESADTFFYQVAYDMGIDRLSEWMGKFGYGHYTGIDLAEERSGNMPTREWKQKRFKKPWYQGDTIPVGIGQGYWTATPIQMSKALMILINDGIVKVPHLLMSTAEDGKQVPWVQPHEPPVGDIHSGYWELAKDGMYGVANRPNGTAHKYFASAPYKIAAKSGTAQVFGLKANETYNAHKIAERLRDHKLMTAFAPYNNPQVAVAMILENGGAGPAVGTLMRQILDHIMLGDNNTDLPAENPAVAAAEDH"}, "B2": {"name": "lspA; numbered along this chain (parent)", "chain": "MSQSICSTGLRWLWLVVVVLIIDLGSKYLILQNFALGDTVPLFPSLNLHYARNYGAAFSFLADSGGWQRWFFAGIAIGISVILAVMMYRSKATQKLNNIAYALIIGGALGNLFDRLWHGFVVDMIDFYVGDWHFATFNLADTAICVGAALIVLEGFLPSRAKKQ"}, "B3": {"name": "lgt; numbered along this chain (parent)", "chain": "MTSSYLHFPEFDPVIFSIGPVALHWYGLMYLVGFIFAMWLATRRANRPGSGWTKNEVENLLYAGFLGVFLGGRIGYVLFYNFPQFMADPLYLFRVWDGGMSFHGGLIGVIVVMIIFARRTKRSFFQVSDFIAPLIPFGLGAGRLGNFINGELWGRVDPNFPFAMLFPGSRTEDILLLQTNPQWQSIFDTYGVLPRHPSQLYELLLEGVVLFIILNLYIRKPRPMGAVSGLFLIGYGAFRIIVEFFRQPDAQFTGAWVQYISMGQILSIPMIVAGVIMMVWAYRRSPQQHVS"}}, "note": "± gives the standard deviation of the averaged measurements. Laboratory Escherichia coli strains with one amino-acid change in an essential protein, pooled on minimal glucose agar with carbenicillin or gentamicin at twice the control MIC (plus kanamycin and chloramphenicol for the plasmids), 48 h. Fold change of barcode share against drug-free plates; higher = less susceptible. Active = above 20 in both replicates (the paper's putatively resistant). '<' = one read or none on drug, '>' = one read or none on a drug-free plate. Shares are relative, so most strains fall below 1 when a few take over. Listed are strains with at least 15 reads on both drug-free plates, and hits; most hits rest on fewer reference reads. Replicate rank correlation about 0.5. Edits are read from barcodes."}
{"variants_of": "B1", "experiment": "barcode share on antibiotic plates over drug-free plates; higher = less susceptible", "settings": "with Escherichia coli (laboratory strain); antibiotic: gentamicin; 2× MIC (MIC 0.45 µg/mL)", "protocol": "(§1)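 A pool of E. coli strains, each edited to carry one amino-acid change in an essential protein, was grown for 48 h on minimal glucose agar with or without antibiotic; strain barcodes were sequenced; mean of two replicates.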"}
{"variant": "V274W", "fold change of barcode share": "< 0.019"}
{"variant": "I590Q", "fold change of barcode share": "0.0297 ± 0.026"}
{"variant": "M604P", "fold change of barcode share": "< 0.00973"}
{"variant": "M604D", "fold change of barcode share": "< 0.0104"}
{"variant": "M604W", "fold change of barcode share": "0.023 ± 0.028"}
{"variant": "M604A", "fold change of barcode share": "0.0459 ± 0.058"}
{"variant": "M604Q", "fold change of barcode share": "< 0.00476"}
{"variant": "V275Q", "fold change of barcode share": "0.0101 ± 0.0021"}
{"variant": "V275A", "fold change of barcode share": "< 0.00289"}
{"variant": "V275W", "fold change of barcode share": "0.0143 ± 0.012"}
{"variant": "I607A", "fold change of barcode share": "< 0.00754"}
{"variant": "I607W", "fold change of barcode share": "0.0067 ± 0.0025"}
{"variant": "I607Q", "fold change of barcode share": "0.0126 ± 0.00084"}
{"variant": "F392W", "fold change of barcode share": "< 0.00442"}
{"variant": "V287P", "fold change of barcode share": "0.00595 ± 0.0046"}
{"variant": "V287D", "fold change of barcode share": "0.0252 ± 0.029"}
{"variant": "V287A", "fold change of barcode share": "< 0.00243"}
{"variant": "V287W", "fold change of barcode share": "0.728 ± 1"}
{"variant": "V287Q", "fold change of barcode share": "0.0151 ± 0.015"}
{"variants_of": "B1", "experiment": "barcode share on antibiotic plates over drug-free plates; higher = less susceptible", "settings": "with Escherichia coli (laboratory strain); antibiotic: carbenicillin; 2× MIC (3.1 µg/mL)", "protocol": "as §1"}
{"variant": "I590Q", "fold change of barcode share": "0.567 ± 0.57"}
{"variant": "M604P", "fold change of barcode share": "0.191 ± 0.044"}
{"variant": "M604D", "fold change of barcode share": "0.0452 ± 0.0068"}
{"variant": "M604W", "fold change of barcode share": "0.117 ± 0.065"}
{"variant": "M604A", "fold change of barcode share": "0.651 ± 0.66"}
{"variant": "M604Q", "fold change of barcode share": "0.278 ± 0.17"}
{"variant": "V275Q", "fold change of barcode share": "0.161 ± 0.014"}
{"variant": "V275A", "fold change of barcode share": "0.269 ± 0.036"}
{"variant": "V275W", "fold change of barcode share": "0.0859 ± 0.047"}
{"variant": "I607A", "fold change of barcode share": "0.362 ± 0.15"}
{"variant": "I607W", "fold change of barcode share": "0.234 ± 0.11"}
{"variant": "I607Q", "fold change of barcode share": "0.322 ± 0.082"}
{"variant": "F392W", "fold change of barcode share": "0.379 ± 0.0044"}
{"variant": "V287P", "fold change of barcode share": "0.307 ± 0.048"}
{"variant": "V287D", "fold change of barcode share": "0.296 ± 0.013"}
{"variant": "V287A", "fold change of barcode share": "0.35 ± 0.12"}
{"variant": "V287W", "fold change of barcode share": "0.25 ± 0.015"}
{"variant": "V287Q", "fold change of barcode share": "0.287 ± 0.057"}
{"variants_of": "B2", "experiment": "barcode share on antibiotic plates over drug-free plates; higher = less susceptible", "settings": "with Escherichia coli (laboratory strain); antibiotic: carbenicillin; 2× MIC (3.1 µg/mL)", "protocol": "as §1"}
{"variant": "F71P", "fold change of barcode share": "0.424 ± 0.021"}
{"variant": "F71A", "fold change of barcode share": "0.205 ± 0.096"}
{"variant": "F71W", "fold change of barcode share": "0.258 ± 0.082"}
{"variant": "L150A", "fold change of barcode share": "0.287 ± 0.059"}
{"variant": "L150Q", "fold change of barcode share": "0.243 ± 0.14"}
{"variant": "L150D", "fold change of barcode share": "0.165 ± 0.081"}
{"variant": "L150W", "fold change of barcode share": "0.252 ± 0.083"}
{"variant": "L150P", "fold change of barcode share": "0.409 ± 0.25"}
{"variant": "V146A", "fold change of barcode share": "0.275 ± 0.013"}
{"variant": "V146D", "fold change of barcode share": "0.334 ± 0.033"}
{"variant": "V146P", "fold change of barcode share": "0.318 ± 0.068"}
{"variant": "V146W", "fold change of barcode share": "0.228 ± 0.013"}
{"variant": "V146Q", "fold change of barcode share": "0.262 ± 0.0059"}
{"variant": "V17D", "fold change of barcode share": "0.242 ± 0.17"}
{"variant": "V17Q", "fold change of barcode share": "0.459 ± 0.42"}
{"variant": "V17A", "fold change of barcode share": "0.511 ± 0.58"}
{"variant": "I75P", "fold change of barcode share": "0.567 ± 0.19"}
{"variant": "I75Q", "fold change of barcode share": "0.442 ± 0.093"}
{"variant": "I75W", "fold change of barcode share": "0.373 ± 0.25"}
{"variant": "I75D", "fold change of barcode share": "0.341 ± 0.0084"}
{"variant": "I75A", "fold change of barcode share": "1.03 ± 0.35"}
{"variant": "I151A", "fold change of barcode share": "0.213 ± 0.082"}
{"variant": "I151P", "fold change of barcode share": "0.37 ± 0.0069"}
{"variant": "I151Q", "fold change of barcode share": "0.258 ± 0.064"}
{"variant": "I151D", "fold change of barcode share": "0.325 ± 0.0097"}
{"variant": "I151W", "fold change of barcode share": "0.352 ± 0.053"}
{"variant": "L15P", "fold change of barcode share": "0.547 ± 0.32"}
{"variant": "L15A", "fold change of barcode share": "0.246 ± 0.03"}
{"variant": "L15W", "fold change of barcode share": "0.193 ± 0.04"}
{"variant": "L15Q", "fold change of barcode share": "0.299 ± 0.21"}
{"variants_of": "B2", "experiment": "barcode share on antibiotic plates over drug-free plates; higher = less susceptible", "settings": "with Escherichia coli (laboratory strain); antibiotic: gentamicin; 2× MIC (MIC 0.45 µg/mL)", "protocol": "as §1"}
{"variant": "F71P", "fold change of barcode share": "< 0.00628"}
{"variant": "F71A", "fold change of barcode share": "0.0142 ± 0.005"}
{"variant": "F71W", "fold change of barcode share": "< 0.0116"}
{"variant": "L150A", "fold change of barcode share": "0.00848 ± 0.0066"}
{"variant": "L150Q", "fold change of barcode share": "< 0.00512"}
{"variant": "L150D", "fold change of barcode share": "< 0.0203"}
{"variant": "L150W", "fold change of barcode share": "0.11 ± 0.15"}
{"variant": "L150P", "fold change of barcode share": "0.00476 ± 0.0018"}
{"variant": "F72A", "fold change of barcode share": "< 0.0227"}
{"variant": "V146A", "fold change of barcode share": "0.00534 ± 0.00093"}
{"variant": "V146D", "fold change of barcode share": "0.00371 ± 0.0017"}
{"variant": "V146P", "fold change of barcode share": "0.00449 ± 0.0041"}
{"variant": "V146W", "fold change of barcode share": "< 0.00203"}
{"variant": "V146Q", "fold change of barcode share": "0.00241 ± 0.00078"}
{"variant": "V17D", "fold change of barcode share": "< 0.00852"}
{"variant": "V17P", "fold change of barcode share": "< 0.00442"}
{"variant": "V17Q", "fold change of barcode share": "< 0.00987"}
{"variant": "V17W", "fold change of barcode share": "< 0.00739"}
{"variant": "V17A", "fold change of barcode share": "0.00968 ± 0.0058"}
{"variant": "I75P", "fold change of barcode share": "< 0.0115"}
{"variant": "I75Q", "fold change of barcode share": "0.0145 ± 0.0019"}
{"variant": "I75W", "fold change of barcode share": "0.00846 ± 0.0056"}
{"variant": "I75D", "fold change of barcode share": "< 0.00494"}
{"variant": "I75A", "fold change of barcode share": "0.00644 ± 0.004"}
{"variant": "I151A", "fold change of barcode share": "0.0128 ± 0.013"}
{"variant": "I151P", "fold change of barcode share": "0.00532 ± 0.0049"}
{"variant": "I151Q", "fold change of barcode share": "< 0.00503"}
{"variant": "I151D", "fold change of barcode share": "< 0.00394"}
{"variant": "I151W", "fold change of barcode share": "0.00228 ± 0.0011"}
{"variant": "L15P", "fold change of barcode share": "< 0.00703"}
{"variant": "L15A", "fold change of barcode share": "0.00783 ± 0.0022"}
{"variant": "L15W", "fold change of barcode share": "< 0.00501"}
{"variant": "L15Q", "fold change of barcode share": "< 0.00576"}
{"variants_of": "B3", "experiment": "barcode share on antibiotic plates over drug-free plates; higher = less susceptible", "settings": "with Escherichia coli (laboratory strain); antibiotic: carbenicillin; 2× MIC (3.1 µg/mL)", "protocol": "as §1"}
{"variant": "V127P", "fold change of barcode share": "0.205 ± 0.12"}
{"variant": "V127Q", "fold change of barcode share": "0.245 ± 0.17"}
{"variant": "V127W", "fold change of barcode share": "0.533 ± 0.28"}
{"variant": "I213W", "fold change of barcode share": "0.318 ± 0.19"}
{"variant": "I213D", "fold change of barcode share": "0.367 ± 0.23"}
{"variant": "L31D", "fold change of barcode share": "0.475 ± 0.025"}
{"variants_of": "B3", "experiment": "barcode share on antibiotic plates over drug-free plates; higher = less susceptible", "settings": "with Escherichia coli (laboratory strain); antibiotic: gentamicin; 2× MIC (MIC 0.45 µg/mL)", "protocol": "as §1"}
{"variant": "V127P", "fold change of barcode share": "0.0235 ± 0.015"}
{"variant": "V127A", "fold change of barcode share": "< 0.0147"}
{"variant": "V127Q", "fold change of barcode share": "< 0.00989"}
{"variant": "V127W", "fold change of barcode share": "< 0.0137"}
{"variant": "I213A", "fold change of barcode share": "< 0.018"}
{"variant": "I213W", "fold change of barcode share": "< 0.0121"}
